This is one part of the list. Interaction screen of human proteins with wild-type SARS-CoV-2 proteins by split-DHFR complementation in yeast, 1 µg/mL methotrexate. Value = fitness of the pair (three or more lineages) minus that of the viral protein without a human partner, on a scale set by negative (0) and fused positive (1) controls, mean of up to three cultures; higher = more likely to interact. Active = false discovery rate below 0.05 (one-sided t-test) in at least one culture. Nearly all pairs are not hits, and differences among them are mostly noise (correlation between cultures about 0.3); most hits were seen in one culture only. Human sequences are the Swiss-Prot entries looked up by gene name; the clone may be another isoform. NSP2 values were corrected by the authors for a growth advantage. Listed are human proteins with a hit and a random twelfth of the others.
B1: GPS2, Q13227 (protein)
chain: MPALLERPKLSNAMARALHRHIMMERERKRQEEEEVDKMMEQKMKEEQERRKKKEMEERMSLEETKEQILKLEEKLLALQEEKHQLFLQLKKVLHEEEKRRRKEQSDLTTLTSAAYQQSLTVHTGTHLLSMQGSPGGHNRPGTLMAADRAKQMFGPQVLTTRHYVGSAAAFAGTPEHGQFQGSPGGAYGTAQPPPHYGPTQPAYSPSQQLRAPSAFPAVQYLSQPQPQPYAVHGHFQPTQTGFLQPGGALSLQKQMEHANQQTGFSDSSSLRPMHPQALHPAPGLLASPQLPVQMQPAGKSGFAATSQPGPRLPFIQHSQNPRFYHK
B2: GPSM3, Q9Y4H4 (protein)
chain: MEAERPQEEEDGEQGPPQDEEGWPPPNSTTRPWRSAPPSPPPPGTRHTALGPRSASLLSLQTELLLDLVAEAQSRRLEEQRATFYTPQNPSSLAPAPLRPLEDREQLYSTILSHQCQRMEAQRSEPPLPPGGQELLELLLRVQGGGRMEEQRSRPPTHTC
B3: GTF2B, Q00403 (protein)
chain: MASTSRLDALPRVTCPNHPDAILVEDYRAGDMICPECGLVVGDRVIDVGSEWRTFSNDKATKDPSRVGDSQNPLLSDGDLSTMIGKGTGAASFDEFGNSKYQNRRTMSSSDRAMMNAFKEITTMADRINLPRNIVDRTNNLFKQVYEQKSLKGRANDAIASACLYIACRQEGVPRTFKEICAVSRISKKEIGRCFKLILKALETSVDLITTGDFMSRFCSNLCLPKQVQMAATHIARKAVELDLVPGRSPISVAAAAIYMASQASAEKRTQKEIGDIAGVADVTIRQSYRLIYPRAPDLFPTDFKFDTPVDKLPQL

What follows are binders tested against SARS-CoV-2 E (assay: yeast fitness gain over the viral ORF with no human partner (scaled fitness); higher = more likely to interact).
Procedure: (§1)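 Split mouse DHFR complementation in pooled diploid yeast: human ORFeome clones carry one fragment and viral ORFs the other; barcoded lineages compete in 1 µg/mL methotrexate and fitness is read by barcode sequencing in up to three cultures.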

Binder | yeast fitness gain
B1 | inactive: 0.105
B2 | inactive: 0.0337
B3 | inactive: 0.0418

The binders below were run against SARS-CoV-2 M in the same assay as above.
Procedure: as §1

Binder | yeast fitness gain
B1 | inactive: 0.0246
B2 | inactive: -0.0509
B3 | inactive: 0.0435

The binders below were run against SARS-CoV-2 N in the same assay as above.
Procedure: as §1

Binder | yeast fitness gain
B1 | inactive: -0.0418
B2 | inactive: 0.138
B3 | inactive: -0.0731

These binders were tested against SARS-CoV-2 NSP1 in the same assay as above.
Procedure: as §1

Binder | yeast fitness gain
B1 | inactive: 0.144
B2 | inactive: -0.043
B3 | inactive: -0.000713

What follows are binders tested against SARS-CoV-2 NSP10 in the same assay as above.
Procedure: as §1

Binder | yeast fitness gain
B1 | inactive: 0.0117
B2 | inactive: 0.0321
B3 | inactive: -0.00265

Each binder was assayed against SARS-CoV-2 NSP12 in the same assay as above.
Procedure: as §1

Binder | yeast fitness gain
B1 | inactive: -0.04
B2 | inactive: -0.0709
B3 | active: 0.0526

The binders below were run against SARS-CoV-2 NSP13 in the same assay as above.
Procedure: as §1

Binder | yeast fitness gain
B1 | inactive: 0.0162
B2 | inactive: -0.0155
B3 | inactive: 0.0197

Each binder was assayed against SARS-CoV-2 NSP14 in the same assay as above.
Procedure: as §1

Binder | yeast fitness gain
B1 | inactive: 0.0105
B2 | inactive: -0.178
B3 | inactive: -0.0184

The binders below were run against SARS-CoV-2 NSP15 in the same assay as above.
Procedure: as §1

Binder | yeast fitness gain
B1 | inactive: -0.212
B2 | inactive: 0.0405
B3 | inactive: -0.0261

What follows are binders tested against SARS-CoV-2 NSP16 in the same assay as above.
Procedure: as §1

Binder | yeast fitness gain
B1 | inactive: 0.0335
B2 | inactive: -0.15
B3 | inactive: 0.0125

These binders were tested against SARS-CoV-2 NSP2 in the same assay as above.
Procedure: as §1

Binder | yeast fitness gain
B1 | inactive: -0.133
B2 | inactive: -0.216
B3 | inactive: -0.0318

What follows are binders tested against SARS-CoV-2 NSP4 in the same assay as above.
Procedure: as §1

Binder | yeast fitness gain
B1 | inactive: -0.237
B2 | inactive: 0.0233
B3 | inactive: -0.039

What follows are binders tested against SARS-CoV-2 NSP5 in the same assay as above.
Procedure: as §1

Binder | yeast fitness gain
B1 | inactive: 0.023
B2 | inactive: 0.0259
B3 | inactive: -0.000294

These binders were tested against SARS-CoV-2 NSP6 in the same assay as above.
Procedure: as §1

Binder | yeast fitness gain
B1 | inactive: -0.0477
B2 | inactive: -0.0738
B3 | inactive: 0.0391

The binders below were run against SARS-CoV-2 NSP7 in the same assay as above.
Procedure: as §1

Binder | yeast fitness gain
B1 | inactive: -0.0232
B2 | inactive: -0.0715
B3 | inactive: 0.0105

Each binder was assayed against SARS-CoV-2 NSP8 in the same assay as above.
Procedure: as §1

Binder | yeast fitness gain
B1 | inactive: 0.0265
B2 | inactive: -0.025
B3 | inactive: 0.0308

What follows are binders tested against SARS-CoV-2 NSP9 in the same assay as above.
Procedure: as §1

Binder | yeast fitness gain
B1 | inactive: 0.0374
B2 | inactive: -0.0598
B3 | inactive: -0.0281

Each binder was assayed against SARS-CoV-2 ORF10 in the same assay as above.
Procedure: as §1

Binder | yeast fitness gain
B1 | inactive: 0.0103
B2 | inactive: 0.0327
B3 | inactive: 0.0111

These binders were tested against SARS-CoV-2 ORF3A in the same assay as above.
Procedure: as §1

Binder | yeast fitness gain
B1 | inactive: 0.033
B2 | inactive: -0.0837
B3 | inactive: -0.0116

What follows are binders tested against SARS-CoV-2 ORF3B in the same assay as above.
Procedure: as §1

Binder | yeast fitness gain
B1 | inactive: -0.00111
B2 | inactive: -0.046
B3 | inactive: 0.0125

These binders were tested against SARS-CoV-2 ORF6 in the same assay as above.
Procedure: as §1

Binder | yeast fitness gain
B1 | inactive: -0.0167
B2 | inactive: 0.00633
B3 | inactive: -0.00524

What follows are binders tested against SARS-CoV-2 ORF7A in the same assay as above.
Procedure: as §1

Binder | yeast fitness gain
B1 | inactive: 0.0334
B2 | inactive: 0.0187
B3 | inactive: -0.0304

The binders below were run against SARS-CoV-2 ORF7B in the same assay as above.
Procedure: as §1

Binder | yeast fitness gain
B1 | inactive: -0.0595
B2 | inactive: -0.0334
B3 | inactive: 0.0156

These binders were tested against SARS-CoV-2 ORF8 in the same assay as above.
Procedure: as §1

Binder | yeast fitness gain
B1 | inactive: -0.012
B2 | inactive: -0.0056
B3 | inactive: -0.000375

The binders below were run against SARS-CoV-2 ORF9B in the same assay as above.
Procedure: as §1

Binder | yeast fitness gain
B1 | inactive: 7.7e-05
B2 | inactive: 0.0769
B3 | inactive: -0.000338

What follows are binders tested against SARS-CoV-2 ORF9Bwu (the 73-codon ORF) in the same assay as above.
Procedure: as §1

Binder | yeast fitness gain
B1 | inactive: 0.0333
B2 | inactive: 0.0351
B3 | inactive: 0.00525

Each binder was assayed against SARS-CoV-2 S in the same assay as above.
Procedure: as §1

Binder | yeast fitness gain
B1 | inactive: 0.0202
B2 | inactive: 0.0394
B3 | inactive: 0.0117

Reference: the supplement of paper PMC11741623
